# From PubChem BioAssay AID504332 (National Center for Advancing Translational Sciences (NCATS), 2011)
# About 31,000 (8.9%) of roughly 350,000 compounds were called active. This list was built around the results that the source calls inconclusive (neither active nor inactive); the mix of calls is not that of the screen. Calls follow the shape of the dose curve; as a rule, active = well fitted inhibition curve with a large enough effect; inconclusive = small, poorly fitted or top-dose-only effect; inactive = no such curve, though single readings can be large or run the other way. Where the call is inconclusive, the potency comes from a doubtful curve fit.
# Molecular target: Histone-lysine N-methyltransferase EHMT2 (Homo sapiens) (UniProt Q96KQ7)
# UniProt Q96KQ7, sequence (Q96KQ7 whole entry, looked up): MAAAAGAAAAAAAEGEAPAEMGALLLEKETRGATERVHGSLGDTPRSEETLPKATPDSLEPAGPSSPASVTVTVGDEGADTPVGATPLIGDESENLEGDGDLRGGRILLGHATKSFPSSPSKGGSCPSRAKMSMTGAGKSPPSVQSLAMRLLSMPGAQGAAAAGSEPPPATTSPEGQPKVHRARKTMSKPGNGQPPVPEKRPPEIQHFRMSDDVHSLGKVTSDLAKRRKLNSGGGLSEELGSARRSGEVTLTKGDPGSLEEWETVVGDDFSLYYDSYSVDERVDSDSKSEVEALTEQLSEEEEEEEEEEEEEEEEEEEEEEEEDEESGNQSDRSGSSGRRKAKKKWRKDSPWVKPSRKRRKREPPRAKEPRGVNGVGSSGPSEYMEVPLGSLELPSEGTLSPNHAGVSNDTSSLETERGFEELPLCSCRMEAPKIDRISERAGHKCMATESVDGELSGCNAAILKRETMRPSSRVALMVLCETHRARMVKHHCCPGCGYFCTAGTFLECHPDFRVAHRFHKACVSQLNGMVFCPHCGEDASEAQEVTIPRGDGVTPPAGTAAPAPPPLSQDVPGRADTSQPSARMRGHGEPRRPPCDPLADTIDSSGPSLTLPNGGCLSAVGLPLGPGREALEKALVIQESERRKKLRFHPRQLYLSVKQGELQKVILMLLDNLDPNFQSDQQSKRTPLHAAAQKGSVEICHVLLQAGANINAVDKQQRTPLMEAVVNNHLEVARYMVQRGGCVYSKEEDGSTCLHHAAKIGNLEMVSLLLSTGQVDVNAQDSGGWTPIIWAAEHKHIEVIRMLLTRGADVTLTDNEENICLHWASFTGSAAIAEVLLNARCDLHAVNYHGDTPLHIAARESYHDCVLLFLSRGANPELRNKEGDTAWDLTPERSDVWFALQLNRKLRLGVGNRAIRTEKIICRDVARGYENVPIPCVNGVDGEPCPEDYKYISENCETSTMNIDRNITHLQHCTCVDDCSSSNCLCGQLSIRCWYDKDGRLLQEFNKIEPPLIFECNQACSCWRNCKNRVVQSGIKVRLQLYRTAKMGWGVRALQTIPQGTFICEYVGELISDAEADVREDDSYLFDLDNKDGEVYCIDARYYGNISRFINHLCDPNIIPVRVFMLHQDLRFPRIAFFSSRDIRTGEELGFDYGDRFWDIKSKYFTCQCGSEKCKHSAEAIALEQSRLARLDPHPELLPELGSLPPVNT
# Assay: qHTS Assay for Inhibitors of Histone Lysine Methyltransferase G9a; also: nearly all actives have a fitted effect of over 75% in size
# Settings: G9a H3K9 monomethylation, AlphaScreen, 2 h; activity, negative = inhibition: at 59 µM (top of the series) unless noted
# How it was run: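 Chemiluminescent proximity detection of H3K9 monomethylation, read after 10 min bead incubation in the dark. Reaction: 20 nM G9a, 500 nM biotin-H3K9 peptide, 20 uM SAM cofactor, 2 h, room temperature, following 15 min enzyme-compound preincubation.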
# % is scaled to controls: 0 for no effect and ±100 for the full control effect; potency is read from the fitted curve at half-maximal effect; tags tell the direction and shape of the fitted curve.
Compound,"activity, negative = inhibition",Potency
COc1ccc2[nH]cc(CCNc3cc(-c4ccccc4C)ncn3)c2c1,inactive: -29.3% [at 0.501 µM],–
COc1cc(C2NC(=S)NC(c3ccccc3)=C2C(C)=O)cc(Br)c1OCC(N)=O (configuration not stated),–,"inconclusive: 70.8 µM [inhibitor, partial curve, poor fit]"
COc1cc(OC)cc(C(=O)NC(=S)Nc2ccc(N3CCCC3)cc2)c1,–,active: 10 µM
C=CCn1c(SCC(=O)Nc2nc(C)cs2)nnc1C(CO)NC(=O)c1ccccc1 (configuration not stated),–,"inconclusive: 28.2 µM [inhibitor, single point]"
Cc1cc(NC(=O)Cn2cnc3sc(C)c(-c4ccccc4)c3c2=O)no1,–,"inconclusive: 28.2 µM [inhibitor, single point]"
COc1ccccc1N1CCN(C(=O)c2cc3c(=O)n(Cc4ccco4)ccc3nc2C)CC1,–,"inconclusive: 25.1 µM [inhibitor, single point]"
CC(c1ccccc1)C1OCC(C[N+]2(C)CCCCC2)O1 (configuration not stated),–,"inconclusive: 8.91 µM [inhibitor, full curve]"
Cc1ccc(S(=O)(=O)/N=C2\C(=O)c3ccccc3C([O-])=C2n2cc[n+](CCC(C)C)c2)cc1,inconclusive: -63% [inhibitor],–
O=c1ccc2c(o1)/C(=C/C=C(Cl)Cl)CCC2,–,"inconclusive: 17.8 µM [inhibitor, partial curve, poor fit]"
COc1ccc(C(=O)N2CCC3(CCN(CC(C)C)CC3)CC2)cc1,inactive: -25.4% [at 12.7 µM],–
COc1ccc(Nc2ncnc3c2oc2ccccc23)cc1,–,"inconclusive: 79.4 µM [inhibitor, single point]"
Cc1cc2c(s1)c1c(n2C)C(=O)N(Cc2ccccc2F)C1,inactive: 4.89% [at 12.7 µM],–
O=C(N/N=C/c1ccc[nH]1)c1cc2ccccc2cc1O,–,active: 79.4 µM
COc1ccc(-n2c(SCc3ccc([N+](=O)[O-])cc3)nnc2-c2ccccc2)cc1,–,"inconclusive: 4.47 µM [inhibitor, partial curve, poor fit]"
CCSCc1nnc(SCC(=O)Nc2cc(F)ccc2C)n1C,–,"inconclusive: 44.7 µM [inhibitor, partial curve]"
CC(=O)Nc1ccc(C(=O)CSc2nc3ccccc3n2CC(=O)N2CCCC2)cc1,–,"inconclusive: 39.8 µM [inhibitor, single point]"
Cc1cc(C)c(NC(=S)N(CCN(C)C)Cc2cccs2)c(C)c1,inactive: -4.3%,–
COc1ccc(/C=C2\OC(=S)N(C)C2=O)cc1,–,"inconclusive: 25.1 µM [inhibitor, partial curve, poor fit]"
c1ccc(CSc2nnc(-c3c[nH]c4ccccc34)o2)cc1,inactive: 0.826% [at 102 µM],–
S=c1[nH]nc(CNc2ccc(Cl)cc2)n1Cc1ccccc1,–,"inconclusive: 50.1 µM [inhibitor, partial curve, poor fit]"
CCC(C)C(N=C1NS(=O)(=O)c2ccccc21)C(=O)N1CCC(C)CC1 (configuration not stated),inactive: -37.1% [at 102 µM],–
COc1cccc(CNCC(=O)N2C(C)CCCC2C)c1 (configuration not stated),–,active: 12.6 µM
COCCN(C(=O)COC(=O)C1CC1C)c1c(N)n(Cc2ccccc2)c(=O)[nH]c1=O (configuration not stated),–,"inconclusive: 79.4 µM [inhibitor, single point]"

Compound,"activity, negative = inhibition",Potency
O=C1OCC(c2ccccc2)=C1c1ccccc1,inactive: -6.36%,–
COc1cc(/C=C(\C#N)C(=O)N2CCOCC2)cc(Br)c1O,–,"inconclusive: 8.91 µM [inhibitor, partial curve, poor fit]"
Cc1ccc(CN2CCSc3ccc(C(=O)N4CCN(c5cc(C)ccc5C)CC4)cc32)cc1,–,"inconclusive: 14.1 µM [inhibitor, partial curve, poor fit]"
NC1=NC(=O)/C(=C\c2ccc(O)c([N+](=O)[O-])c2)S1,–,"inconclusive: 79.4 µM [inhibitor, single point]"
CNc1ccc(Br)cc(C(=O)/C=C/c2ccc3c(c2)OCO3)c1=O,–,active: 10 µM
O=C(NCCc1ccccc1)/C(=C/c1ccco1)c1ccccc1,–,active: 10 µM
O=S(=O)(c1cccc2nonc12)N1CCN(c2ccc(F)cc2)CC1,–,"inconclusive: 44.7 µM [inhibitor, partial curve]"
CC(=O)Nc1cccc(-c2nnc(SCC(=O)N3CCCCC3)n2C)c1,–,"inconclusive: 11.2 µM [inhibitor, partial curve, poor fit]"
Cc1ccc(-n2c(O)c(C=Nc3ccccc3-c3n[nH]c(=S)[nH]c3=O)c3ccccc3c2=O)c(C)c1,–,"inconclusive: 0.891 µM [inhibitor, full curve, poor fit]"
O=C(NC(=S)Nc1ccccc1[N+](=O)[O-])c1ccccc1,–,active: 25.1 µM
Clc1ccc(-n2c(SC/C=C/c3ccccc3)nnc2-c2cccnc2)cc1,–,"inconclusive: 39.8 µM [inhibitor, partial curve, poor fit]"
CC(=O)/C(C#N)=C1\NC(=O)C(Cc2ccc(F)cc2)S1 (configuration not stated),–,"inconclusive: 3.16 µM [inhibitor, full curve, poor fit]"
COc1ccc(CC(=O)Nc2ccc3c(c2)CCC3)cc1OC,–,"inconclusive: 22.4 µM [inhibitor, single point]"
COc1ccc(C(C(=O)NC2CCCCC2)N(C(=O)CCl)c2cccc(Cl)c2)cc1 (configuration not stated),inactive: -46%,–
N#Cc1ccccc1NC(=O)COC(=O)c1ccc2c(c1)OCO2,inactive: 9.61% [at 2.33 µM],–
O=[N+]([O-])c1cc(-c2ccc(C(=S)N3CCOCC3)o2)ccc1Cl,–,active: 1.78 µM
CCc1cc2c(=O)c(-c3nc4ccccc4[nH]3)coc2c(CN2CCCCC2)c1O,inconclusive: -76.9% [inhibitor] [at 12.7 µM],–
O=C(Nn1cnnc1)C(Sc1ccccc1)c1ccccc1 (configuration not stated),–,"inconclusive: 20 µM [inhibitor, single point]"
Cc1cccc(NC(=O)c2nc(S(C)(=O)=O)ncc2Cl)c1,–,active: 8.91 µM
COc1ccc(NC(=O)C(OC(=O)c2cnc(C)cn2)c2ccccc2)cc1Cl (configuration not stated),inactive: -29.3% [at 102 µM],–
Cc1cccc2cc(CN(C(=O)c3cccs3)c3ccccc3)c(=O)[nH]c12,–,"inconclusive: 1.26 µM [inhibitor, full curve]"
CC(=O)Nc1ccccc1-c1nn[nH]n1,–,"inconclusive: 89.1 µM [inhibitor, single point]"
CN(C)S(=O)(=O)c1ccc(NC(=O)CSc2n[nH]c(=O)n2C2CC2)cc1,–,"inconclusive: 12.6 µM [inhibitor, partial curve, poor fit]"

Compound,"activity, negative = inhibition",Potency
O=C(NNC(=S)NC(=O)c1cccnc1)c1ccc(Cl)cc1,–,active: 22.4 µM
CC(=O)c1ccc(NC(=O)C2C3C=CC(C3=C(c3ccccc3)c3ccccc3)C2C(=O)O)cc1 (configuration not stated),–,"inconclusive: 39.8 µM [inhibitor, full curve, poor fit]"
O=C(CCN1CCN(c2ccccc2)CC1)N/N=C/c1ccc(O)c(O)c1O,–,active: 8.91 µM
NS(=O)(=O)c1ccc(CCNCc2cc(Cl)ccc2OCc2ccccc2)cc1,inactive: 2.29%,–
CCn1cc(C(=O)N2CCN(c3ccccc3F)CC2)c(=O)c2cc(S(=O)(=O)N(C)C3CCCCC3)ccc21,–,"inconclusive: 12.6 µM [inhibitor, partial curve, poor fit]"
O=C(NC1CCCCC1)C(c1cccs1)N(C(=O)Cc1c[nH]c2ccccc12)c1ccc(F)cc1 (configuration not stated),–,"inconclusive: 8.91 µM [inhibitor, partial curve, poor fit]"
O=C1c2ccccc2C(=O)N1CCC(=O)N1CCCc2ccccc21,–,"inconclusive: 28.2 µM [inhibitor, single point]"
CCc1ccc(NC(=O)C2CCN(S(=O)(=O)c3ccc4[nH]c5c(c4c3)CCCCC5)CC2)cc1,–,"inconclusive: 8.91 µM [inhibitor, partial curve, poor fit]"
CNc1snc(C)c1C(=O)OCC(=O)Nc1ccc(C)cc1F,–,"inconclusive: 56.2 µM [inhibitor, partial curve, poor fit]"
Cc1cccc(N2CCN(C(=S)c3ccccc3)CC2)c1,inconclusive: -80.1% [inhibitor],–
CCC(C)NC(=O)CSc1nc2c(sc(=S)n2Cc2ccco2)c(=O)n1-c1ccccc1 (configuration not stated),inactive: 0.454% [at 102 µM],–
COc1ccc2[nH]cc(CC(N)C(=O)O)c2c1 (configuration not stated),–,"inconclusive: 15.8 µM [inhibitor, partial curve]"
COc1ccc2cnnc(SCC(=O)Nc3ccc(C(=O)O)cc3)c2c1OC,–,"inconclusive: 39.8 µM [inhibitor, single point]"
COc1ccc(-c2ccc3c(N)c(C(=O)NCc4ccc(Cl)cc4)sc3n2)cc1,inactive: 1.63%,–
COc1ccc(CNC(=O)C(c2ccc(C)o2)N(C(=O)c2snc(C(N)=O)c2N)c2ccccc2OC)cc1 (configuration not stated),–,active: 50.1 µM
O=C(NNC1=C(C(=O)C(F)(F)F)CCC1)c1ccccc1O,–,"inconclusive: 89.1 µM [inhibitor, single point]"
Cc1cc(N2CCN(C(c3ccccc3)c3ccccc3)CC2)n2ncnc2n1,inactive: -18.5%,–
Cc1cc(C)c(NC(=O)CNC(=O)c2ccccc2SCC(=O)N2CCCC2)c(C)c1,–,"inconclusive: 2.24 µM [inhibitor, full curve, poor fit]"
O=[N+]([O-])c1cc(-c2nc(-c3ccccc3)no2)ccc1N1CCN(c2ccccc2)CC1,–,"inconclusive: 0.794 µM [inhibitor, full curve, poor fit]"
CCOC(=O)CSc1nc2c(sc3ccccc32)c(=O)n1CCc1ccccc1,inactive: -0.501%,–
Cc1ccc(CNC(=O)C2CCN(c3nc4ccccc4n(C)c3=O)CC2)cc1,–,"inconclusive: 35.5 µM [inhibitor, partial curve, poor fit]"
